This data set relates to ATP. As to the kind of experiment: switch fluorescence ratio, 500 uM ATP over buffer (Cy3 cluster intensity, sum of 5 cycles each) (fold (ratio)); higher = stronger signal-on switching upon ATP binding; sequences stand for … in TCGTCGGCAGCGTCAGATGTGTATAAGAGACAGTTTTTTTTTTTTTTTTTTTTTTTTT…TC. The following applies: aptamer strand: ATP DNA aptamer (quencher-CACCTGGGGGAGTATTGCGGAGGAAGG + anchor), 100 nM annealed; ATP concentration: 500 uM; one replicate. In a few lines: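 Cy3-labelled switching-strand clusters on a modified Illumina MiSeq flow-cell were annealed to 100 nM quencher-labelled ATP aptamer, imaged in selection buffer, then imaged after 15 min with 500 uM ATP at 22 °C. Five buffer/ATP cycles ran, with NaOH stripping and re-annealing between them. The fluorescence ratio is summed target-cycle over summed buffer-cycle Cy3 intensity per cluster, averaged per switch-domain sequence. Clusters outside 100-1000 RFU were excluded.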

Sequences with one replicate were seen in a single cluster, so their values are uncertain.
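Note: ATP exposure 15 min at 22 °C before imaging.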

For the sequence GGTCCATGAT, the switch fluorescence ratio was 1.02.

Take CACGGCCGAG: the switch fluorescence ratio turned out to be 1.

With TGTAATAGAT, the switch fluorescence ratio is 0.998.

For the sequence GCCGCAGGGT, the switch fluorescence ratio is 1.01.

As for ATCATATATG, the switch fluorescence ratio came out at 1.02.

Turning to GATTACCGGG, the switch fluorescence ratio is 1.04.

In the case of TCCTGGGG, the switch fluorescence ratio stood at 1.12.

In the case of GCGTATTGAA, the switch fluorescence ratio worked out at 0.995.

As to CACTCTAGAT, the switch fluorescence ratio came to 1.04.

For GAGTAGAGGT, the switch fluorescence ratio came out at 1.01.

Turning to ACTGCCACC, the switch fluorescence ratio is 1.4.

On to TTTAGTCGAC, for which the switch fluorescence ratio is 1.01.

TCAGAACAT: the switch fluorescence ratio was found to be 1.06.

As for TGATTCGTCG, the switch fluorescence ratio came to 1.

GAAACTAGGA: the switch fluorescence ratio came out at 1.03.

For the sequence CCGTAGACAG, the switch fluorescence ratio is 2.02.

Take ACCAAAACAG: the switch fluorescence ratio was found to be 1.09.

For AACCAGATCG, the switch fluorescence ratio stood at 1.02.

In the case of AGAGTGAATG, the switch fluorescence ratio is 0.989.

AGTGAAGAGT: the switch fluorescence ratio was 0.977.

Consider AACCAGGCGC, for which the switch fluorescence ratio worked out at 1.1.

Regarding ATGCCTTTGG, the switch fluorescence ratio is 0.984.

CGACCTCTTT: the switch fluorescence ratio amounted to 0.979.

For ATGCGCACCA, the switch fluorescence ratio was determined as 1.02.

For the sequence GGTGTGGACC, the switch fluorescence ratio worked out at 0.976.

For the sequence AGCCGCCGGC, the switch fluorescence ratio stood at 1.04.

Turning to ACTGAACTGG, the switch fluorescence ratio worked out at 1.2.

In the case of GCCGGGGGGT, the switch fluorescence ratio worked out at 1.

For AAGATGAAGA, the switch fluorescence ratio stood at 0.967.

TTGCATTGCC: the switch fluorescence ratio stood at 0.956.

In the case of GCATCAGCAC, the switch fluorescence ratio is 1.13.

On to GCGAGGACTA, for which the switch fluorescence ratio worked out at 1.04.

Consider ATCATTCCG, for which the switch fluorescence ratio was found to be 1.03.

With TCCGGCGAGC, the switch fluorescence ratio was found to be 1.09.

In the case of TATTACCGGT, the switch fluorescence ratio came out at 1.

Regarding CGGAAATCTA, the switch fluorescence ratio is 1.05.

TCATGATTAA: the switch fluorescence ratio amounted to 0.997.

For the sequence CCCATAGAGC, the switch fluorescence ratio came to 1.06.

Take TACTGGGAGT: the switch fluorescence ratio was found to be 1.03.

Consider TGTATTTTAT, for which the switch fluorescence ratio was 1.08.

For the sequence CGGAGACA, the switch fluorescence ratio was found to be 1.02.

With GCGAACTATA, the switch fluorescence ratio was determined as 1.03.

On to GCTATCGATG, for which the switch fluorescence ratio is 0.935.

Regarding GGCGATGGGC, the switch fluorescence ratio is 1.

With AGCTGGAGTT, the switch fluorescence ratio turned out to be 1.02.

With GATTCAGATC, the switch fluorescence ratio turned out to be 1.

On to ATCTAGTGCC, for which the switch fluorescence ratio amounted to 1.06.

On to GATAATAAGA, for which the switch fluorescence ratio stood at 0.952.

On to CGATTCGGAG, for which the switch fluorescence ratio is 0.974.

As for TTCGAAACAT, the switch fluorescence ratio is 1.06.

With TTGCACATCG, the switch fluorescence ratio amounted to 1.04.

Consider GTTCATCTGC, for which the switch fluorescence ratio turned out to be 1.1.

For GAAATCGATG, the switch fluorescence ratio was 1.06.

Consider TTTAAGACCA, for which the switch fluorescence ratio is 0.949.

As to AGACTACAAC, the switch fluorescence ratio stood at 1.09.

For CGTACTGTGC, the switch fluorescence ratio came to 1.07.

Regarding CTATTTGGGA, the switch fluorescence ratio is 1.01.

With CCTTTTGTGC, the switch fluorescence ratio amounted to 1.15.

TCTGCACCGC: the switch fluorescence ratio stood at 1.02.

Take GTTGGCAACC: the switch fluorescence ratio amounted to 1.01.

As for TTGCTTTACC, the switch fluorescence ratio amounted to 0.99.

GGAATTTGAC: the switch fluorescence ratio was 1.

TCGGTTTTCC: the switch fluorescence ratio turned out to be 1.01.

As to TTCCGGTTGC, the switch fluorescence ratio was 1.53.

For GTGTGCCGTC, the switch fluorescence ratio was 1.04.

On to CCTACTTACT, for which the switch fluorescence ratio is 1.35.

For GAGGTTGCGC, the switch fluorescence ratio turned out to be 1.

ATGCAGCGGA: the switch fluorescence ratio turned out to be 1.05.

Regarding AAGCTATACG, the switch fluorescence ratio was determined as 1.81.

On to AGGCTATGGC, for which the switch fluorescence ratio was 1.07.

Regarding CGTTCACCCA, the switch fluorescence ratio stood at 1.03.

With ATAACCTGAA, the switch fluorescence ratio came out at 1.44.

Take TACATGGTGT: the switch fluorescence ratio is 1.11.

As for TTTAGTAACA, the switch fluorescence ratio was 1.

Turning to AGAGAACGCC, the switch fluorescence ratio was 1.03.

On to GCTCATTCTC, for which the switch fluorescence ratio was 1.

In the case of CAAAGTGCA, the switch fluorescence ratio worked out at 1.

As for AAAAGAGGCC, the switch fluorescence ratio amounted to 1.02.

ATCGCCGTCG: the switch fluorescence ratio is 1.01.

For TCTAGAGAGC, the switch fluorescence ratio came out at 1.01.

In the case of AAGAGGAAA, the switch fluorescence ratio amounted to 0.955.

On to TATACCTATA, for which the switch fluorescence ratio worked out at 1.06.

For TCCTAGACGC, the switch fluorescence ratio was 1.25.

AAGATTCTCC: the switch fluorescence ratio stood at 1.06.

GCGAGACCCT: the switch fluorescence ratio turned out to be 1.

With CATTCAGTGA, the switch fluorescence ratio worked out at 0.992.

On to TATTAATGCG, for which the switch fluorescence ratio is 1.04.

Consider TCTCGCAAGT, for which the switch fluorescence ratio was determined as 3.42.

As for AGTGTCTAGG, the switch fluorescence ratio is 0.981.

Regarding CGCGTTACTC, the switch fluorescence ratio was determined as 3.18.

Turning to GATGAGTACA, the switch fluorescence ratio is 0.986.

TCAGAGTTTC: the switch fluorescence ratio was 0.978.

As to TTCTTAGTCG, the switch fluorescence ratio was 1.07.

TAGCTTGCCG: the switch fluorescence ratio was 1.04.

Take GATTGACTTA: the switch fluorescence ratio came to 1.03.

For the sequence GACGTCCGAA, the switch fluorescence ratio worked out at 1.09.

For the sequence TAGGTAACTC, the switch fluorescence ratio was 0.954.

Take ATTGGAGTGA: the switch fluorescence ratio was found to be 0.966.

In the case of CCAGGAAAGG, the switch fluorescence ratio is 1.08.

In the case of TCACTGATAC, the switch fluorescence ratio stood at 1.41.

On to ATTTTCTCGA, for which the switch fluorescence ratio worked out at 0.973.

Consider AAAGATGCC, for which the switch fluorescence ratio was found to be 0.903.

As to AACAGAAAGC, the switch fluorescence ratio turned out to be 1.06.

Take AAGACCAGAC: the switch fluorescence ratio was 1.19.

As for ATCCTACAAT, the switch fluorescence ratio came out at 1.06.

CAACTGTCGG: the switch fluorescence ratio was 1.01.

Consider TTTTATCTCT, for which the switch fluorescence ratio came to 1.01.

Take GTGGGTAACG: the switch fluorescence ratio turned out to be 0.958.

Consider AAACATCAAG, for which the switch fluorescence ratio was determined as 1.03.

In the case of ACTACTTTGG, the switch fluorescence ratio worked out at 0.972.

With ACACAGACAG, the switch fluorescence ratio came to 1.12.

For the sequence GGACGATCCA, the switch fluorescence ratio turned out to be 0.962.

With GTCCCGCCAA, the switch fluorescence ratio amounted to 1.67.

As to TAGGAAAGGT, the switch fluorescence ratio amounted to 0.969.

Consider AAGGCGTAAC, for which the switch fluorescence ratio is 0.95.

Consider GTGGGGACTG, for which the switch fluorescence ratio came out at 0.928.

With TTAGCTGCAG, the switch fluorescence ratio is 1.05.

For CGGTGAGAA, the switch fluorescence ratio amounted to 0.959.

CATGATCTTG: the switch fluorescence ratio turned out to be 0.992.

With ACTAGTCTGT, the switch fluorescence ratio came out at 0.996.
